# According to paper PMC12040169 (PLOS Biology, 2025):
# The list shows a part of the results.
# Tested on: T1, C. trachomatis L2/434/Bu expressing GFP (CTL2-GFP)
# T1 construct: L2/434/Bu GFP intracellular growth in HeLa cells
# Set-up: species or system HeLa; C. trachomatis total inclusion area by high-content imaging, normalised to DMSO
# Details: total inclusion area; 28.5 h, 10 µM; inhibitor
# In short: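 Post-fluorescence-read fixation, DNA staining with Hoechst and high-content imaging; GFP inclusion area and number per well, and nuclei counts, used as proxies for bacterial growth and host viability.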
row,SMILES,% of control remaining
1,COc1cc(CNC(=O)N2CCCC(CO)C2)cc(OC)c1OC (stereo not shown) [CBK156041],85.8136
2,CCOC(=O)N1N=C(c2ccc(F)cc2)CC1(O)C(F)(F)F (stereo not shown) [CBK027156],83.0312
3,O=C(/C=C(O)/C(O)=C/C(=O)c1ccc(Cl)cc1)c1ccc(Cl)cc1 [CBK261428],92.1743
4,OCCN1CCN(c2ccc(-c3cc(C(F)(F)F)cc(C(F)(F)F)c3)cn2)CC1 [CBK036941],86.8253
5,O=C(O)CCC(=O)Nc1ccc(OC(F)F)cc1 [CBK264222],90.546
6,O=C1NC2(CCCC2)C(=O)N1Cc1cnn(-c2ccccc2)n1 [CBK305568],77.7563
7,COC(=O)c1ccccc1NC(=O)CSc1n[nH]c(-c2ccccc2Cl)n1 [CBK265966],74.6518
8,Clc1ccc(CN2CCN(c3nccnc3OC3CCCCC3)CC2)cc1 [CBK082826T],57.4988
9,Cc1ccc(S(=O)(=O)N2CCN(C)CC2)cc1NC(=O)c1ccc(Br)o1 [CBK034260C],85.9301
10,COc1ccc(-c2cc(C(=O)NCCc3c[nH]cn3)cnc2-c2ccc(F)cc2)cn1 [CBK036675],80.9202
11,O=C(NCCc1cccs1)Nc1cc(Cl)nc(Cl)c1 [CBK043762],87.8437
12,COc1ccc(NC(=O)c2cnc(-c3cccc(C(F)(F)F)c3)c(-c3ccncc3)c2)cc1 [CBK037593],92.3935
13,CC(Sc1ccc(S(=O)(=O)N2CCN(C)CC2)cn1)C(=O)Nc1ccc(C(C)(C)C)cc1 (stereo not shown) [CBK297551],59.1237
14,Cc1cccnc1Nc1ccc(C2CCCN(C(=O)Cc3ccc4c(c3)CCCO4)C2)nc1 (stereo not shown) [CBK285969],96.9777
15,O=C1NC2=C(C(=O)N(CC3CCCO3)C2)C(c2ccccc2)N1 (stereo not shown) [CBK283494],75.3
16,CNC(=O)CN1CCC[C@@H]2NC(=O)c3ccccc3OCCCCC[C@@H]21 [CBK292104],89.7888
17,Cn1nc(NC(=O)CN2CCOC2=O)c2c(N3CCOCC3)cccc21 [CBK306830],47.2028
18,O=C(CCCc1nc2ccccc2c(=O)[nH]1)NC(Cc1ccc(O)cc1)C(=O)O (stereo not shown) [CBK297130],92.4295
19,OCC1(CNc2ncc(F)c(N3CCCC3)n2)CCCC1 [CBK307397],29.6896
20,COc1ccc(CN(Cc2ccc(NC(C)=O)cc2)[C@@H]2COC[C@H]2c2ccc(F)cc2)cc1 [CBK286488],81.9608
21,Nc1cc(=O)[nH]c(SCC(=O)N2CCCc3ccccc32)n1 [CBK304576],80.5225
22,CC(Oc1ccccc1)C(=O)Nc1cccc(-c2nnc(-c3ccccc3)o2)c1 (stereo not shown) [CBK262822],103.993
23,O=C(NC1CCN(CC2(c3ccccc3)CC2)CC1)C1CCC1 [CBK285322],91.6519
24,Cc1nccn1CCCC(=O)NCC1(c2ccccc2F)CCCC1 [CBK281370],68.9272
25,CC(C)C(=O)Nc1cc2cccnc2c(-c2ccccc2)n1 [CBK081287],98.683
26,c1ccc(-c2ccno2)c(OCc2ccc(-c3nccnc3-c3nnn[nH]3)cc2)c1 [CBK050817],88.4649
27,CN(C(=O)CSc1ncccc1C#N)c1ccccc1 [CBK288044],117.041

row,SMILES,% of control remaining
1,O=C(C1=C(O)C(=O)N(c2ccc([N+](=O)[O-])cc2)C1c1ccccc1)c1ccccc1 (stereo not shown) [CBK263787],114.486
2,CC(C)Nc1nccnc1OCc1ccsc1 [CBK115646],110.595
3,CCCN(C)Cc1ccc(-c2cn(CC(=O)NCc3ccc4c(c3)OC(F)(F)O4)nn2)cc1 [CBK166361],52.1737
4,C[S+]([O-])CC(O)(c1ccc(F)cc1)C1CC1 (stereo not shown) [CBK025846],116.858
5,CN(CCN(C)/N=C/c1c2ccccc2cc2ccccc12)/N=C/c1c2ccccc2cc2ccccc12 [CBK262039],120.109
6,Cc1ccc(C2CC(=O)Nc3nc(-c4ccccc4)[nH]c(=O)c32)c(C)c1 (stereo not shown) [CBK287998],78.2262
7,CCN1CCN(C(=O)Cc2cn(C)c3ccccc23)CC1 [CBK200254],98.3603
8,Cc1cc(C)n(CCNC2CCN(c3ccccc3C)CC2)c(=O)n1 [CBK306848],76.9949
9,CC(=O)N1CCN(C(=O)c2cnc(-c3ccc(Cl)cc3)c(-c3ccco3)c2)CC1 [CBK037518],100.203
10,Cc1ccc(CS(=O)(=O)N(CCO)C2CCC2)c(F)c1 [CBK304101],54.2264
11,COC(=O)c1ccc(N2CCN(Cc3nnnn3C3CC3)C(C)C2)cc1 (stereo not shown) [CBK306129],86.9816
12,N=C(NC(=S)Nc1ccccc1)N1CCN(Cc2ccccc2)CC1 [CBK267878],95.9305
13,NS(=O)(=O)c1ccc(-c2ccc(/C=C3/SC(=S)N(C4CCCCC4)C3=O)o2)cc1 [CBK263127],89.3181
14,O=C(NC(S(=O)O)C(F)(F)F)OCc1ccccc1 (stereo not shown) [CBK018979],138.629
15,CC(Oc1cccc2cccnc12)C(=O)N/N=C/c1ccc(-c2ccc(Br)cc2)o1 (stereo not shown) [CBK262838],45.4182
16,CNC(=O)c1cnc2sc3c(n2c1=O)CCCC3 [CBK288126],74.7588
17,CCN(CC)C(=O)C1CCCN(C(=O)Nc2ccc(N(CC)CC)cc2)C1 (stereo not shown) [CBK156139],65.3308
18,Fc1ccc(-c2c[nH]c([C@@H]3COCCN3Cc3ncc[nH]3)n2)cc1 [CBK289263],119.82
19,COc1ccc(OC)c(N2Cc3ccc(OC)c(OC)c3C2=O)c1 [CBK113161],123.245
20,C[C@@H](Nc1nc(-c2ccccc2)cnc1N)c1ccccc1 [CBK063728],84.0636
21,CCOCCCNC(=O)c1cnn2c(C)c(CC)c(C)nc12 [CBK162129],69.4651
22,COc1cccc(OCC(=O)NCC(c2ccsc2)N2CCCC2)c1 (stereo not shown) [CBK304630],55.346
23,c1cnc2c(OCc3nc4ccccc4[nH]3)cccc2c1 [CBK268556],69.4469
24,O[C@@]1(c2ccccn2)CC[C@H]2CN(Cc3ccc(F)c(F)c3)C[C@H]21 [CBK285456],74.7398
25,CCn1c(CN2CC(n3nc(C)cc3C)C2)nc2c(F)cccc21 [CBK306220],60.4761
26,CN(C)CC1CCCN(C(=O)C2C3CCCCC32)C1 (stereo not shown) [CBK282002],104.331
27,COc1cc(CN2CCC(N3CCCCCC3)CC2)ccc1OCc1ccccc1 [CBK264709G],118.658

row,SMILES,% of control remaining
1,CC(=O)C1=C(O)C(=O)N(CCC(=O)O)C1c1ccccc1 (stereo not shown) [CBK286763],76.1756
2,Cc1nc(N2CCOCC2)cc(N2CCN(C(=O)C3CCCC3)CC2)n1 [CBK307602],89.661
3,COc1ccc(C(NC(=O)C2CCN(Cc3c[nH]c4ccccc34)CC2)c2ccccn2)cc1 (stereo not shown) [CBK148033],90.7896
4,COc1ccc(C(=O)NC(=N)NCCc2c[nH]c3ccccc23)cc1 [CBK267840],96.9064
5,Cc1ccc(CN(C(=O)/C=C/C(=O)O)C(C)(C)C)cc1 [CBK286799],101.074
6,CS(=O)(=O)N1CCCCCC1c1cc(-c2ccc(F)cc2)no1 (stereo not shown) [CBK284669],93.9296
7,CNCCOCC(O)CSc1ccccc1 (stereo not shown) [CBK262704],95.9697
8,Cn1ccnc1C(NC(=O)N1CCOCC1)c1ccc(F)c(F)c1 (stereo not shown) [CBK283781],66.5109
9,C#CCNS(=O)(=O)c1cccc(C(=O)N2CCOC(CC(=O)OC)C2)c1 (stereo not shown) [CBK306138],42.4014
10,CCN(CC)CCN(C)C1CCN(C)CC1 [CBK261917],60.1331
11,CC1CCc2c(C(=O)N(C)CC(=O)NC(C)(C)C)csc2C1 (stereo not shown) [CBK305002],67.5499
12,CCOC(=O)c1[nH]c(C)c(C(=O)N/N=C/c2ccc(-c3ccc(Cl)cc3)o2)c1C [CBK262503],113.685
13,COc1ccc(NS(=O)(=O)c2ccc(OCC(=O)N3CCN(C)CC3)cc2)cc1Cl [CBK269565],76.3875
14,O=C1CN(c2ccccc2)C(=O)N1c1ccccc1 [CBK116496],104.571
15,Cc1cc(OC(F)(F)F)ccc1NS(=O)(=O)c1cnn(-c2ccccc2)c1C [CBK062354],74.5145
16,COC(=O)c1ccc(S(=O)(=O)n2ccn(-c3cccc(C(F)(F)F)c3)c2=O)n1C [CBK106594],88.1965
17,CN1CCN(C(=O)Cn2cc(C(=O)NC3CCCCC3)ccc2=O)C(c2ccccc2)C1 (stereo not shown) [CBK286102],116.589
18,C[C@H]1CN2C[C@H](O)CC2CN1Cc1cccn1-c1ccc(F)cc1 (stereo partly shown) [CBK285465],91.3545
19,CCC(CC)C(=O)N(C)c1c(C)nc2c(OCC(=O)c3ccc(F)cc3)cccn12 [CBK147239],87.8155
20,O[C@@]1(c2ccccn2)CC[C@H]2CN(Cc3ccccc3F)C[C@H]21 [CBK283001],80.2283
21,CCc1c(C)nc2nnc(NC(=O)C(F)(F)F)n2c1O [CBK020762],38.9988
22,COCCNc1cc(-c2ccc(NC(C)=O)cc2)ncn1 [CBK090799],82.9701
23,CNC1CCC2(c3ccc(OC)c(OC)c3)CCN(C)C2C1 (stereo not shown) [CBK059586C],91.3586
24,Cc1cc(C)nc(NC(=O)NS(=O)(=O)Nc2ccccc2Cl)n1 [CBK260912],100.724
25,CS(=O)(=O)NC1CCCN(c2ccc3ccccc3n2)C1 (stereo not shown) [CBK306457],61.5172
